From the BET-seq Pho4 binding data (Le et al. 2018)
The list shows a part of the results. Values were computed here from the reads of four pooled replicates and scatter widely.

Molecular target: T1, Pho4 (S. cerevisiae) (UniProt P07270)
T1 sequence: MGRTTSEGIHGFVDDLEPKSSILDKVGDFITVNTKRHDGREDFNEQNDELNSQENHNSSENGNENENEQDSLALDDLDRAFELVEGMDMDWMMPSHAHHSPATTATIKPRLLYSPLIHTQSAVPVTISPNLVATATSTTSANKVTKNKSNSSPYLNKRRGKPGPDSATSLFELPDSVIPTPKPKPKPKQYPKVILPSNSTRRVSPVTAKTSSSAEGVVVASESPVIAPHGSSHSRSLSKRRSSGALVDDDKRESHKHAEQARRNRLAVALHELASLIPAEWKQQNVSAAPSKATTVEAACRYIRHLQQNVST
Test: relative binding free energy (BET-seq); higher = weaker binding
Conditions: reference: library average

| Sequence | relative binding free energy |
| --- | --- |
| TGGAGCACGTGTTAAT | 0 kcal/mol |
| GTTGGCACGTGCATTA | -0.07 kcal/mol |
| GCCCGCACGTGGGGGT | -0.13 kcal/mol |
| TTTGGCACGTGACTTA | -0.02 kcal/mol |
| TTATTCACGTGGTGGA | 0.23 kcal/mol |
| AGTATCACGTGGGTTA | -0.05 kcal/mol |
| GGGTGCACGTGGAATA | 0.08 kcal/mol |
| ATGTTCACGTGGTTTG | 0.28 kcal/mol |
| TTAGCCACGTGTGTTT | -0.06 kcal/mol |
| TATGCCACGTGGTGTT | -0.28 kcal/mol |
| TATCGCACGTGTATAT | 0.03 kcal/mol |
| GCCAGCACGTGTGTGT | 0.07 kcal/mol |
| ACTTTCACGTGTAAGT | 0.2 kcal/mol |
| TGGTTCACGTGAGTAG | 0.41 kcal/mol |
| GTATCCACGTGGTGAG | 0.06 kcal/mol |
| TGCAGCACGTGGAGTG | -0.01 kcal/mol |
| TACGGCACGTGCAGTG | 0.03 kcal/mol |
| TTTAACACGTGGAATT | 0.25 kcal/mol |
| AATGTCACGTGCGTGA | -0.06 kcal/mol |
| AATGACACGTGGATAG | 0.11 kcal/mol |
| TTCGACACGTGTGGGG | 0.21 kcal/mol |
| GGCAGCACGTGTTGTG | -0.03 kcal/mol |
| AAGGGCACGTGAATAA | 0.15 kcal/mol |

| Sequence | relative binding free energy |
| --- | --- |
| AATGACACGTGATGGT | -0.03 kcal/mol |
| CGTGTCACGTGTCTTG | 0.07 kcal/mol |
| GGGTTCACGTGTTTAA | 0.17 kcal/mol |
| TCGGTCACGTGAGGGT | 0.22 kcal/mol |
| AAGGACACGTGGCATG | 0.01 kcal/mol |
| GCGTTCACGTGGGGTC | 0.18 kcal/mol |
| TTGGGCACGTGTTAAG | 0.03 kcal/mol |
| TTGTGCACGTGGGTCC | -0.21 kcal/mol |
| ATTTGCACGTGAGCGT | 0.14 kcal/mol |
| TCGCTCACGTGGGTGT | -0.14 kcal/mol |
| GGTTGCACGTGGTGTT | -0.01 kcal/mol |
| TTCGGCACGTGATGAG | -0.07 kcal/mol |
| GTTGGCACGTGCTTCG | -0.11 kcal/mol |
| TAGCGCACGTGGGTGG | -0.28 kcal/mol |
| GCCGTCACGTGGGGGA | -0.09 kcal/mol |
| GTGTTCACGTGACGCG | 0.39 kcal/mol |
| TGGATCACGTGTCGGA | 0.22 kcal/mol |
| TCTTGCACGTGTGGTG | 0.05 kcal/mol |
| GGGCGCACGTGGGTAT | -0.4 kcal/mol |
| GCTGGCACGTGAGCGT | 0.11 kcal/mol |
| TAGGGCACGTGATACA | -0.01 kcal/mol |
| AGATGCACGTGTTTGA | -0.07 kcal/mol |
| ACACGCACGTGTGGGG | -0.19 kcal/mol |

| Sequence | relative binding free energy |
| --- | --- |
| TGGTGCACGTGCAATG | -0.01 kcal/mol |
| CGTGGCACGTGAGAAT | 0.03 kcal/mol |
| TTGTTCACGTGGCTCG | 0.24 kcal/mol |
| TAAGTCACGTGAGAGG | 0.18 kcal/mol |
| TTACTCACGTGTCTGG | 0.18 kcal/mol |
| GATGACACGTGGGATG | -0.12 kcal/mol |
| TAAAACACGTGTTAGG | 0.05 kcal/mol |
| TTGGACACGTGATTAT | 0.16 kcal/mol |
| CTAGGCACGTGGTTAG | -0.24 kcal/mol |
| AGATTCACGTGAGTTA | 0.37 kcal/mol |
| AATGTCACGTGGCATG | 0.03 kcal/mol |
| CGAGGCACGTGGGCAT | -0.17 kcal/mol |
| ATGTCCACGTGGTTGC | 0.1 kcal/mol |
| ATTATCACGTGTCTTT | 0.15 kcal/mol |
| TAAAGCACGTGGAGGA | -0.02 kcal/mol |
| TGGGTCACGTGAAATG | 0.16 kcal/mol |
| TATATCACGTGTTACG | 0.14 kcal/mol |
| CGTTGCACGTGCGGGT | -0.13 kcal/mol |
| TGGTTCACGTGGGAGC | 0.23 kcal/mol |
| TTGGTCACGTGCTTGC | 0.09 kcal/mol |
| AGATACACGTGGGTGG | -0.09 kcal/mol |
| TTGCACACGTGAGGGG | 0.31 kcal/mol |
| CCGGTCACGTGGTGGA | -0.04 kcal/mol |

| Sequence | relative binding free energy |
| --- | --- |
| TTAGGCACGTGGGCAA | -0.29 kcal/mol |
| GTAGCCACGTGGGTGA | -0.25 kcal/mol |
| AGGAACACGTGAGGGG | 0.24 kcal/mol |
| CGAGTCACGTGTGGAG | 0.08 kcal/mol |
| TGTGTCACGTGAGGTC | 0.36 kcal/mol |
| GCGGTCACGTGTAAGG | 0.23 kcal/mol |
| TTTTACACGTGGAATG | 0.21 kcal/mol |
| TTTGTCACGTGATAGA | 0.21 kcal/mol |
| AGTGACACGTGGGAGA | -0.08 kcal/mol |
| AGTTGCACGTGCGTTA | -0.1 kcal/mol |
| TAGGTCACGTGCACGG | 0 kcal/mol |
| AGTAACACGTGTGTGC | -0.06 kcal/mol |
| TTTCGCACGTGAGGGG | 0.17 kcal/mol |
| GGAGGCACGTGAGGTC | 0.24 kcal/mol |
| TCGGGCACGTGGGATT | -0.05 kcal/mol |
| ATAGGCACGTGGAAGT | -0.13 kcal/mol |
| GCGTGCACGTGAAGGT | 0.19 kcal/mol |
| GTACACACGTGGGAGG | -0.06 kcal/mol |
| TCGTGCACGTGAGGCG | 0.04 kcal/mol |
| GTCATCACGTGGGAGT | 0.02 kcal/mol |
| TCTTGCACGTGTAGGG | 0.02 kcal/mol |
| GCGTCCACGTGGGGGA | -0.08 kcal/mol |
| TTCGTCACGTGTAGGT | 0.08 kcal/mol |

| Sequence | relative binding free energy |
| --- | --- |
| GGCGTCACGTGTTTTC | 0.22 kcal/mol |
| GTTAACACGTGTGCGA | 0.05 kcal/mol |
| TGTGTCACGTGCACGG | -0.09 kcal/mol |
| GTGATCACGTGTGATG | 0.14 kcal/mol |
| GTTTGCACGTGCTGGC | -0.04 kcal/mol |
| CTTTTCACGTGTTTAC | 0.22 kcal/mol |
| GTAGGCACGTGGGGCT | -0.34 kcal/mol |
| GTTGGCACGTGCATTG | 0.02 kcal/mol |
| TATGCCACGTGGGATT | -0.19 kcal/mol |
| ATGGGCACGTGACAGT | -0.02 kcal/mol |
| AATTCCACGTGTAGGG | 0.16 kcal/mol |
| ACGTTCACGTGGAGTT | 0.17 kcal/mol |
| TCTTTCACGTGCGTGG | 0.36 kcal/mol |
| TGTAACACGTGGAGGC | -0.03 kcal/mol |
| TGTAGCACGTGATTCG | 0.07 kcal/mol |
| GTAGCCACGTGTTTTG | -0.06 kcal/mol |
| GGGGCCACGTGGAGTG | 0.02 kcal/mol |
| ATATTCACGTGTTGGT | 0.25 kcal/mol |
| TGCGGCACGTGCGGTT | -0.13 kcal/mol |
| ATCTTCACGTGTTAAT | 0.32 kcal/mol |
| TAATTCACGTGGGTTG | 0.17 kcal/mol |
| ATTATCACGTGCTGTA | 0.07 kcal/mol |
| AGTTCCACGTGTATTT | 0.06 kcal/mol |
